Measured values taken from publication PMC4336329 (PLoS ONE, 2015).
The whole screen tested about 310,000 compounds, of which about 2,200 (0.71%) showed an effect of 50% or more. Effects have a minus sign here. This is one part of the list.

Biological target: human ether-à-go-go-related gene (hERG) potassium channel (human, UniProt Q12809)
Assay: primary screen, population patch clamp on CHO cells stably expressing hERG

Chain of human ether-à-go-go-related gene (hERG) potassium channel (Q12809 whole entry, looked up): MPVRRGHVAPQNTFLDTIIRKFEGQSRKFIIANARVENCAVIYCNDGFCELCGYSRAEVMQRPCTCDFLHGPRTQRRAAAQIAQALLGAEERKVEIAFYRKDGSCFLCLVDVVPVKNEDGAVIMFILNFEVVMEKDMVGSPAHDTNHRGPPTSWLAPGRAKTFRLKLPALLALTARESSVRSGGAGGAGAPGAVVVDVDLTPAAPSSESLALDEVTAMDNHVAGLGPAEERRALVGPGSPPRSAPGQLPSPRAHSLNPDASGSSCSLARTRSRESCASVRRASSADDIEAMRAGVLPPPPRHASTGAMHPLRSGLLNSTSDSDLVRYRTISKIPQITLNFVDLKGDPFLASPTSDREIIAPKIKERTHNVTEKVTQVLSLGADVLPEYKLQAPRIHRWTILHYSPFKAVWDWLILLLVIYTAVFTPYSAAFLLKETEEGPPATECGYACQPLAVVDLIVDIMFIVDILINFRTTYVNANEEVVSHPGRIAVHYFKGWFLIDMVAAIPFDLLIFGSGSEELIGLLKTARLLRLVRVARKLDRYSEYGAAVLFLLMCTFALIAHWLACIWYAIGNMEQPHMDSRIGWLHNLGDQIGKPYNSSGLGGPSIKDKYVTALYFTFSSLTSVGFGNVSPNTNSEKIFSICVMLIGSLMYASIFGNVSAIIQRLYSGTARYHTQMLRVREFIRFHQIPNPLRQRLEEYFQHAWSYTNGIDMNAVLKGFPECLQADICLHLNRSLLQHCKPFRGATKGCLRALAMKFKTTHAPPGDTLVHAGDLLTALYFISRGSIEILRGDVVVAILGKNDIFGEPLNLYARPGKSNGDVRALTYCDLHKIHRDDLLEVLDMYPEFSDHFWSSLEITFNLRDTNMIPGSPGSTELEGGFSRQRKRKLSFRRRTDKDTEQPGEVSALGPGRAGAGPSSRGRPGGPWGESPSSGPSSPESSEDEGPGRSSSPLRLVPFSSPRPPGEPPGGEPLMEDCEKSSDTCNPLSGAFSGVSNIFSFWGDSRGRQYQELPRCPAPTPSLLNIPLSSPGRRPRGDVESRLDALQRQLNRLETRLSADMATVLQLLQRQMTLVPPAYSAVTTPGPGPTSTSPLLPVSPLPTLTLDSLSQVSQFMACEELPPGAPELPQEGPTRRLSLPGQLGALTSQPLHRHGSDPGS

Compound	hERG current change (%, negative = inhibition) at 1uM [%]
Cc1ccccc1C(=O)N1CCN(CCNC(=O)C(=O)Nc2ccc(Br)cc2)CC1	-22.9
CN1C=CC=C/C1=C1/N=C(c2ccccc2)OC1=O	17.2
CN(C)CCN(C(=O)c1ccc(Br)s1)c1nc2cc3c(cc2s1)OCCO3.Cl	12.1
CCOC(=O)c1cn[nH]c1NC(=S)Nc1ccc(Cl)cc1	12.7
Clc1ccc(CSc2nnc(-c3ccccn3)n2Cc2ccco2)c(Cl)c1	3.72
Cc1cc2c(cc1C)[n+](C)cn2CC(O)COCc1ccccc1.[I-] (centres unmarked)	9.69
CC(C)C(c1nnnn1C(C)(C)C)N1CCC(Cc2ccccc2)CC1 (centres unmarked)	6.44
O=C(COc1ccc([N+](=O)[O-])cc1Cl)N1CCOCC1	14.7
Cc1ccccc1-n1c(SC2CCOC2=O)nnc1-c1ccncc1 (centres unmarked)	1.13
CC(=O)N1c2ccc(S(=O)(=O)N3CCCC3)cc2CC1C(=O)NCc1cccc(F)c1 (centres unmarked)	7.57
O=C(O)CCC(=O)c1ccc(-c2ccccc2)cc1	-6.21
CCCCN(Cc1ccccc1)S(=O)(=O)c1cc(Br)cc2c1N(C(C)=O)C(C)C2 (centres unmarked)	9
CCOC(=O)c1cccc(NC(=O)CSc2nnc(-c3cccnc3)n2C)c1	-13.9
O=C(C1=C[C@@H](c2coc3ccccc3c2=O)C[C@@H](OCCCCO)O1)N1CCN(Cc2ccc3c(c2)OCO3)CC1	-15.1
N#CC1=C2SCCN2C(=O)C(C#N)C12CCCCC2 (centres unmarked)	-8.5
COc1ccccc1CNC(=O)c1cc2ccccc2o1	2.84
CC(=O)c1ccc(NC(=O)NCc2ccc(F)cc2)cc1	12.9
COc1ccc(OCC(=O)Nc2ccc(N3CCOCC3)c(Cl)c2)cc1	-0.0984
O=C(Cc1cccs1)Nc1cc(S(=O)(=O)N2CCCCC2)ccc1Cl	6.42
O=C(Cc1ccsc1)N1CCN(S(=O)(=O)c2cc(C(F)(F)F)cc(C(F)(F)F)c2)CC1	2.75
O=C(Cc1cn2ccsc2n1)Nc1nc2c(s1)CCCC2	5.23
C[C@H](NC(=O)c1nc[nH]c1C(=O)NC(c1ccccc1)c1ccccc1)C(=O)OC(C)(C)C	7.05
CCCCCNCc1cccn1C.Cl	4.32

Compound	hERG current change (%, negative = inhibition) at 1uM [%]
CCn1c(=O)c(C(=O)NCCc2ccc(Cl)cc2)c(O)c2ccccc21	9.69
COc1ccc(Nc2nc(-c3ccccc3)nc3ccccc23)c(OC)c1	-0.879
CCCS(=O)(=O)N1CCC(C(=O)NCCN2CCC(Cc3ccccc3)CC2)CC1	-19.5
O=C(CSc1nnc(CNC(=O)c2c(F)cccc2F)o1)c1ccccc1	14
O=C(NCCN1CCN(C(=O)c2cccc([N+](=O)[O-])c2)CC1)C(=O)NCc1ccc(Cl)cc1	0.645
Cc1ccc(C(=O)c2ccccc2C(=O)OCC(=O)NCCc2ccccc2)cc1	4.27
Cn1nc(-c2ccccc2)c(C(=O)Nc2ccc(C(F)(F)F)cc2)c1Cl	5.65
C=CCOc1c(Br)cc(C2NC(=O)NC(C)=C2C(C)=O)cc1OCC (centres unmarked)	18.3
Cc1ccc(-c2noc(CCC(=O)N3CCCC3)n2)cc1	3.74
CCC(C)(C)NC(=O)CN(Cc1ccccc1)C(=O)CCC(=O)Nc1nccs1	2.68
CC(C)CCNC(=O)c1onc(CSc2ccccc2)c1C(=O)NCCC(C)C	9.9
CCc1ccc(OCC(=O)O/N=C(\N)c2ccncc2)c(Br)c1	10.5
Cn1c(=O)c(C(=O)Nc2ncccn2)c(O)c2ccccc21	16.4
Cc1ccc(Oc2ccc(OCC(=O)OC3CCS(=O)(=O)C3)cc2)cc1 (centres unmarked)	12.7
Cl.O=C(OCCN1CCCCC1)c1ccccc1Cl	9.06
CCCCOc1ccc(CCN)cc1Cl.Cl	-1.14
CNC(=O)COC(=O)c1ccc([N+](=O)[O-])cc1Cl	8.2
Cc1cc(C)[n+](C2C3CC4CC(C3)CC2C4)o1.[O-][Cl+3]([O-])([O-])[O-] (centres unmarked)	15.5
O=C(NNC(=S)NCc1ccccc1)c1ccc(OC(F)F)cc1	6.29
COc1cc(/C=N/NC(=O)CNC(=O)c2ccccc2)ccc1OC(=O)c1cccs1	9.49
CCc1ccc(C(=O)Nc2ccc(OC)c(S(=O)(=O)N3CCCCC3)c2)cc1	8.61
COc1ccc(NC(=O)NNC(=O)c2cc(C3CC3)nc3ccccc23)c(OC)c1	11
CCc1ccc(C(C(=O)NC2CCCC2)N(Cc2cccnc2)C(=O)c2csnn2)cc1 (centres unmarked)	2.84

Compound	hERG current change (%, negative = inhibition) at 1uM [%]
S=C(NCc1ccco1)N/N=C/c1ccncc1	9.3
CCOc1ccc(CCNC(=O)/C=C/c2ccco2)cc1OCC	-170
O=C(O)c1ccc(-c2noc(-c3ccccc3C(F)(F)F)n2)cc1	18.6
CCCCC12CNCC(C)(CNC1)C2=O	9.47
COC(CNS(=O)(=O)c1cccc2nonc12)OC	13.7
COc1ccc(Cl)cc1NS(=O)(=O)c1ccc(OC)c(OC)c1	7.09
C=CCN(C(=O)c1csnn1)C(C(=O)NC1CCCC1)c1c(F)cccc1Cl (centres unmarked)	15.7
COc1ccc(Cc2cc(-c3ccc(F)cc3)n[nH]c2=O)cc1	13.2
COCCn1c(SCC(N)=O)nnc1-c1c[nH]c2ccccc12	7.03
CN(C(=O)c1ccc(NC(=O)Cc2ccc(NC(=O)C3CCCN(C(=O)C4CC4)C3)cc2)cc1)C1CC1 (centres unmarked)	8.71
CSc1oc(-c2cccs2)nc1S(=O)(=O)c1ccccc1	4.25
Cn1c(=O)c(C(=S)NC(=O)C2CC2)c(N)n(Cc2ccccc2)c1=O	16.4
Cc1cccn2c(=O)c(C=NCc3ccccc3)c(NCCO)nc12	4.27
CC(CN1CCOCC1)OC(=O)/C=C/c1ccccc1.Cl (centres unmarked)	14.1
COC(=O)c1cccc(COC(=O)c2cccnc2SC)c1	-1.25
O=C(c1ccc(Cl)nc1)N1CCN(S(=O)(=O)c2ccc3c(c2)OCCO3)CC1	7.17
CCCOc1ccc(-c2nn(-c3ccccc3)cc2/C=C2\SC(N)=NC2=O)cc1	0.968
COc1ccc(NC(=O)CN(C)C2CCCCC2)c([N+](=O)[O-])c1	7.35
COc1cccc(OCC(O)CN2CCN(c3ncccn3)CC2)c1.Cl (centres unmarked)	3.06
Cc1cc(C(=O)NNS(=O)(=O)c2ccccc2C(F)(F)F)nn1C(C)(C)C	9.52
CCOc1ccc(NC(=O)C2CCCN(S(=O)(=O)c3c(C)nn(C)c3C)C2)cc1 (centres unmarked)	4.3
O=C(CN1N=C(c2ccccc2)CCC1=O)NCc1ccccc1	6.79
COc1ccc(CC(C)Nc2cccc(F)c2)cc1 (centres unmarked)	17.7

Compound	hERG current change (%, negative = inhibition) at 1uM [%]
COc1ccc2c(C)cc(SCC#N)nc2c1	11.8
Cn1c(C(=O)O)c(CC(=O)NCc2cccnc2)c2ccccc21	7.96
Cc1ncc([N+](=O)[O-])n1Cc1cccc2ccccc12	8.9
CC1(C)Cc2c(sc(NC(=O)C(=O)N3CCCCC3)c2C(=O)O)CO1	10.7
CCOC(=O)c1c(NC(=O)c2ccccc2)sc2c(O)c(CN(CC)CC)ccc12.Cl	-5.27
NC(=O)CCC(C(=O)O)N1C(=O)c2ccc(O)cc2C1=O (centres unmarked)	9.53
O=C(NC(=O)c1ccccc1O)c1ccc(C(F)(F)F)cc1	16.5
C=CCc1c(C)nc(-c2ccccc2)nc1Nc1ccccc1O	3.7
C=CCn1c(SCc2ccccc2)nc2c1c(=O)[nH]c(=O)n2C	-9.19
COC(=O)C(=C/C(C)=C/c1cccs1)C(=O)OC	10.7
CN1C(=O)/C(=C/c2ccc(C(F)(F)F)cc2)Sc2ccc(C(=O)N3CCN(c4ccccn4)CC3)cc21	9.9
CCN1C(=O)c2ccccc2S(=O)c2ccc(C(=O)NCCN(CC(C)C)CC(C)C)cc21 (centres unmarked)	8.48
CC(C)(CNC(=O)c1ccc(Cl)c(S(=O)(=O)N2CCc3ccccc3C2)c1)N1CCOCC1	-9.68
CC1(C)CC(=O)C=C(N2CCNCC2)C1	14
CCOc1ccc(N(CC(=O)NCc2cccc(OC)c2)S(=O)(=O)c2c(C)noc2C)cc1	8.09
CCOC(=O)c1ccccc1NC(=O)c1cccnc1	-3.61
O=C(NCc1ccc2c(c1)OCO2)c1ccc(S(=O)(=O)C(F)F)cc1	-0.408
Cc1ccc(NS(=O)(=O)c2ccc(OCC(N)=O)cc2)cc1	10.3
CC(=O)N1CCc2cc(S(=O)(=O)CCC(=O)NCc3cccs3)ccc21	8.45
Cc1cccc(NC(=O)c2cn(-c3ccccc3)nc2-c2ccccc2)c1	15
